The whole screen tested about 370,000 compounds, of which about 150 (0.041%) were called active. This list was built around the results that the source calls inconclusive (neither active nor inactive); the mix of calls is not that of the screen. The call rests on the fitted dose curve; in most records, active means well fitted inhibition curve with a large enough effect; inconclusive means small, poorly fitted or top-dose-only effect; inactive means flat fitted curve, though single readings scatter. Potencies of inconclusive entries are left out as doubtful fits.
Molecular target: Beta-lactamase (Escherichia coli (strain K12)) (UniProt P00811)
Assay: qHTS Inhibitors of AmpC Beta-Lactamase (assay with detergent); further: nearly all actives have a fitted effect of over 25% in size
Conditions: AmpC hydrolysis of nitrocefin, absorbance 480 nm, 0.01% Triton; series mostly up to 114 µM
In short: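 20 mM phosphate pH 7.0 + 0.01% (detergent screen) or 0.0001% Triton X-100; 5.3 nM AmpC reagent; cpd preinc 15 min RT; nitrocefin (800 uM stock) to start; A480 q20 s × 4 min; Activity was normalised to no-enzyme and no-compound control wells.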
Potency means the concentration at half of the fitted maximal effect; tags describe the fitted curve by direction and shape.

Sequence of UniProt P00811 (P00811 whole entry, looked up): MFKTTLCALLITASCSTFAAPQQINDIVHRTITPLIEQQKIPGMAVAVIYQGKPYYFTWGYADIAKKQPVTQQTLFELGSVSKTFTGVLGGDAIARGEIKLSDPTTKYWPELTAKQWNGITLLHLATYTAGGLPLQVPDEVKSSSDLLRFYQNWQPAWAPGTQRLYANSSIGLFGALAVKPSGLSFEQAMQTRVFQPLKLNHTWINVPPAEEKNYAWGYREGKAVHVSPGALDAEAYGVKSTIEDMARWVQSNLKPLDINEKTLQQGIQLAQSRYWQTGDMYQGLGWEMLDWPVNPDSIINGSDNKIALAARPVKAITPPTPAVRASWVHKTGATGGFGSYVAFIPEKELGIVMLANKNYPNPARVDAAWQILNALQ

Compound | Potency
CCc1ccccc1N(C)C(=O)c1nn(-c2ccc(OC)cc2)c(=O)c2c1c1ccccc1n2C | inactive
CCCCCCNC(=O)CCCCCNS(=O)(=O)c1ccc(OC)cc1 | inconclusive [inhibitor, partial curve, poor fit]
Cc1nc(SCCCSc2n[nH]c(C)n2)n[nH]1 | inconclusive [inhibitor, single point]
O=S(=O)(c1ccccc1)c1nc(-c2ccco2)oc1Nc1ccccc1 | inactive
CC(C)OC(=O)Cn1nnc2c(cnn2-c2ccccc2)c1=O | inconclusive [inhibitor, partial curve]
COCC(=O)Nc1ccc([N+](=O)[O-])cc1OC | inconclusive [inhibitor, partial curve]
CCCOC(=O)c1cccc(NC(=O)CSc2nnc3cc(C)c4ccccc4n23)c1 | inactive
CC(C)(C)C1CCC(C(=O)OCC(=O)N2CCN(C(=O)c3ccco3)CC2)CC1 (stereo not drawn) | inactive
O=S(=O)(c1ccc2nc(-c3ccccc3)[nH]c2c1)N1CCN(c2cccc(Cl)c2)CC1 | inconclusive [inhibitor, full curve, poor fit]
CC(C)CCN1CCC(n2nccc2NC(=O)C2CCOC2)CC1 (stereo not drawn) | inconclusive [inhibitor, full curve, poor fit]
O=C1C2ON(c3ccccc3)C(c3ccccn3)C2C(=O)N1c1ccc(Br)cc1 (stereo not drawn) | inconclusive [inhibitor, partial curve, poor fit]
CCOc1ccccc1NC(=O)C(C)SCc1ccccc1 (stereo not drawn) | inconclusive [inhibitor, partial curve, poor fit]
Cc1ccsc1C(=O)Nc1ccc(S(=O)(=O)N2CCOCC2)cc1 | inconclusive [inhibitor, full curve, poor fit]
Cc1cc(S(=O)(=O)N2CCOCC2)ccc1OCC(=O)Nc1cccc(C(F)(F)F)c1 | inconclusive [inhibitor, full curve]
Cc1ncc(CSc2ccc(Cl)cc2)c(CO)c1O | inconclusive [inhibitor, partial curve, poor fit]
CCOC(=O)/C(Sc1nc(-c2ccccc2)cc(-c2ccccc2)c1C#N)=C(\C)O | inactive
COc1ccc(OC)c(NC(=O)CSc2nc3nc(C)cc(C)n3n2)c1 | inconclusive [inhibitor, partial curve]
C/C=C\C=C/C(=O)Nc1cccc(C2=NOC3(C2)C[C@H](C(N)=O)N(C(=O)c2ccc(OC)cc2)C3)c1 (stereo partly drawn) | inactive
